Data on six molecules can be found in PMC12136788.

Sequences and labels used below:
T1: UNK ZnF1-3 (human, UniProt Q9C0B0 31-174)
T1 sequence: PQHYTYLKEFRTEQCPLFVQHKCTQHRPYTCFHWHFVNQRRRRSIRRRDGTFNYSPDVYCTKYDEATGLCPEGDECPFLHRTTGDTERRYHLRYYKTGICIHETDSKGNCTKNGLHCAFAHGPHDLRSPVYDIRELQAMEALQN

B1: chrX:20248820:20248821:+_ENSMUSG00000001924_ENSMUST00000001989|mus_mus|mus_mus_mus_hu_True|48_88 (ssRNA)
RNA: GGGAGUUCUACAGUCCGACGAUCGGCGAAGUCCGUCACCACAAAGUCAGGCUCUACCAGUGAGGCCACCAAGGAUUUAAAGCUAAUCUUUUUCGGUACUUUGACCUGACUGACGAUGCCUCCACGGAUGUAGUCGGAGAAGUUCAACAGAGGAUUGAGCAUCA
B2: chr6:41757443:41757444:+_ENSG00000214736_ENST00000398881|hu_mus|hu_hu_hu_mus_False|1_18 (ssRNA)
RNA: GGGAGUUCUACAGUCCGACGAUCGAACCGUGCAGAGGCAACAUCUCAGCCGACACUGGGGGAUGGGGGGGCAGUGGGGGGGGGUUCAGGCAAGGAGAGGGAGUCAACUUCAGCUGCUCAAACUUCAGGAUCUUGUGGGGCACACAACAGAGGAUUGAGCAUCA
B3: chr1:58468927:58468928:-_ENSMUSG00000026034_ENSMUST00000148330|mus_mus|mus_mus_mus_hu_False|38_38 (ssRNA)
RNA: GGGAGUUCUACAGUCCGACGAUCAAUUACUGAAAAAGAUGUUCAUUACCUUAGCUAUGUACUUAAUGAACCAAAUUACCCAAACAAAAUAAACAUGUUUACAAAUUAAUGUUAAGAAUUUACAAAGCUGUACAAAAUAACUUACAACAGAGGAUUGAGCAUCA
B4: chr9:35104861:35104862:-_ENSG00000005238_ENST00000378566|hu_hu|FALSE|FALSE (ssRNA)
RNA: GGGAGUUCUACAGUCCGACGAUCAGGAGUGAUGCCAAUUAUCAGGUGUGGGAGGUUACCAAGGCAAUCCAAUUUGAAUAAAUUAUAAAUUAAAAAUAAAUAAAAUAACAAGUGGCCCCUGCCCAGGACAGGGAGGCAACGCUGCAACAGAGGAUUGAGCAUCA
B5: chr2:148693158:148693159:-_ENSG00000115947_ENST00000542387|hu_mus|FALSE|FALSE (ssRNA)
RNA: GGGAGUUCUACAGUCCGACGAUCUGCCCACUGCCUAACAUCUGUAGGGCAGUUGGAGUAUUUCUGUAGAGCAUUCAUAAUUUGAGUAUUAUCCAAAAGUAGUUUCACUAGCUGGUAUUCUCUCUGAGAAUUUACUGAAGUUCUCAACAGAGGAUUGAGCAUCA
B6: 52911635_52912015_3817_CDS_ENSG00000134744_ENST00000257177|human|control|control (ssRNA)
RNA: GGGAGUUCUACAGUCCGACGAUCGGAAACUCCAGCACCAAGGUUAUGAUUCAAGUCAAAAGGGUCUUCAAUUGCAAUGCACUUGGAAGUCCACUGCUUCUCAAAAGUUGUCAACAGCUUUUUCUGCCGAAUGCUAAUUACAUACAACAGAGGAUUGAGCAUCA

This is one part of the list.

This assay addresses T1, UNK ZnF1-3. Nature of the assay: nsRBNS (natural sequence RNA bind-n-seq); RBNS binding buffer (assumed for nsRBNS): 25 mM Tris pH 7.5, 150 mM KCl, 3 mM MgCl2, 0.01% Triton X-100, 500 ug/ml BSA, 20 U/ml SUPERase-In, 4 C; UNK is unkempt and MSI1 is Musashi-1; names of the RNAs are library labels; protein concentration not given here; high values mean tight binding.
Molecule B1 had a binding signal of 0.971 enrichment R.

For B2, the binding signal came out at 2.56 enrichment R.

Turning to B3, the binding signal stood at 0.966 enrichment R.

B4 gave a binding signal of 2.48 enrichment R.

On to B5, for which the binding signal is 1.15 enrichment R.

Take B6: the binding signal was determined as 0.808 enrichment R.
